# Assay results from PubChem BioAssay AID602393 (Broad Institute, 2012).
# Screen size: about 350,000 compounds; about 7,000 (2%) were called active. Inconclusive means that the source gave no clear call. Such entries were picked first, then a sample of the others. No stated cut-off is given here; in the data, active means activation above about 40%; inconclusive means no clear call, values can overlap the other calls; inactive means below that.
# Test: raisers of Bmi1 knock-in reporter signal – mouse ES cells, Bmi1 luciferase knock-in, single point, esBAF inhibitor project, primary screen (AID 602393);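 further: 0% = median of the plate's neutral control wells and 100% = double that signal; a rise in the Bmi1 reporter signal indicates esBAF inhibition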
# Conditions: 24 h, at 12.5 µM, stronger effect = higher value, 100% = twice the neutral-well signal
row,SMILES,reporter increase
1,O=C(NC(=S)Nc1ccccc1[N+](=O)[O-])c1ccccc1Cl,inconclusive: 30%
2,CCOC(=O)COc1c(OC)cc(Cl)cc1C1Nc2ccccc2C(=O)N1c1cccc(C)c1 (configuration not stated),inconclusive: 44.4%
3,C(/C=C/c1ccccc1)=N/N1CCN(c2ccccc2)CC1,inconclusive: 43.5%
4,O=C(Nc1nnc(C2CCCO2)s1)c1cccs1 (configuration not stated),inconclusive: 44.8%
5,CC(=O)Nc1nc(-c2ccc3c(c2)CC(C)N3C(=O)C2CC2)c(C)s1 (configuration not stated),inconclusive: 44%
6,C[C@@H]1CCCCO[C@@H](CN(C)C(=O)Nc2ccc3c(c2)OCO3)[C@@H](C)CN([C@H](C)CO)C(=O)c2cc(NC(=O)Nc3ccc(F)cc3)ccc2O1,inactive: 1.17%
7,Oc1ccccc1C=NNC(=S)NC1CC2C=CC1C2 (configuration not stated),active: 70%
8,CCC(C)N1CC(O)=C(c2nc3ccccc3[nH]2)C1=N (configuration not stated),inconclusive: 40.4%
9,Cc1cc(COc2ccccc2)oc1C(=O)O,active: 50.9%
10,Cc1ccc(NC(=O)Nc2ccc3c(c2)N(C)C(=O)CS3)nc1,inconclusive: 41.8%
11,Cc1ccc(N=Cc2nc(-c3ccco3)oc2O)cc1,active: 48.2%
12,Cc1ccc(/C=N\Nc2cn[nH]c(=O)c2Cl)cc1,active: 52.7%
13,CC/C(=N/NC(=O)c1ccc2c(c1)OCO2)c1ccccc1O,inconclusive: 42.4%
14,Cc1ccc2c(CSc3nnc4ccccn34)cc(=O)oc2c1C,inconclusive: 40.3%
15,Nc1cc(N)nc(SCc2cccc(F)c2)n1,active: 65%
16,CCN(CC)C(=O)Oc1ccc2c(c1)O/C(=C\c1ccco1)C2=O,inconclusive: 56.6%
17,COc1ccccc1CNCC(=O)Nc1ccc(N(C)C)cc1,inconclusive: 41%
18,COc1cccc(N2CCN(C(=O)c3ccc4nc(N5CCCCC5)sc4c3)CC2)c1,active: 63.6%
19,CO[C@@H]1CN(C)C(=O)c2cc(NS(=O)(=O)CC(F)(F)F)ccc2OC[C@@H](C)N(Cc2cccnc2)C[C@@H]1C,inactive: 0.25%
20,COc1ccc(-c2coc3c(C(=O)Nc4cccnc4)cccc23)c(C)c1,inconclusive: 42.6%
21,Cc1ccc(-c2cnc3c(c2)C(=O)N([C@@H](C)CO)C[C@H](C)[C@@H](CN(C)S(C)(=O)=O)O3)cc1,inactive: -1.74%
22,O=C(O)CCCNC(=O)/C(=C\c1ccc(Cl)cc1)NC(=O)c1ccc(Br)cc1,inactive: -4.34%
23,Cc1cc(/C=C2/NC(=S)NC2=O)c(C)n1-c1cccnc1,inconclusive: 40%

row,SMILES,reporter increase
1,C=CCn1c(COc2ccccc2)nc2ccccc21,active: 49.6%
2,C[C@H](C(=O)N(C)C[C@@H]1OCc2ccccc2-c2ccccc2C(=O)N([C@H](C)CO)C[C@@H]1C)c1ccccc1,inactive: 3.27%
3,Cc1ccc(O)c(NC(=O)c2cc(-c3ccccc3Cl)on2)c1,active: 52.4%
4,CC(C)CC(=O)Nc1ccc(N2CCOCC2)cc1,inactive: 6.85%
5,Cc1ccc(NC(=O)CSc2nccn2C)cc1F,inconclusive: 44.5%
6,O=C(c1cccc(S(=O)(=O)NCc2ccccc2)c1)N1CCCCC1,inactive: 0.49%
7,CCCC#Cc1ccc2c(c1)O[C@H](CN(C)C)[C@@H](C)CN([C@H](C)CO)S2(=O)=O,inactive: -0.307%
8,NC(=O)C1(Nc2ccc(-c3ccc(Cl)cc3)cc2)CCCC1,inconclusive: 41.4%
9,Cc1ccc(C(=O)O)cc1NC(=S)NC(=O)c1ccc(-c2ccccc2)cc1,active: 62.1%
10,COCCn1c(C)cc(C(=O)CN2c3cccc4cccc(c34)S2(=O)=O)c1C,inconclusive: 40.6%
11,Cc1cccc(C(=O)Nc2sc3c(c2C(=O)O)CCC3)c1,inconclusive: 50.2%
12,CSc1ccccc1-c1nnc(-c2ccccc2)o1,active: 42.7%
13,Clc1ccc2[nH]c(-c3ccccc3)cc2c1,active: 60.1%
14,N#Cc1ccc(C(=O)Nc2ccc3ccccc3c2)cc1,inactive: 7.27%
15,Cn1c(SCCN2CCOCC2)nc2sc3c(c2c1=O)CCCC3,inconclusive: 40.3%
16,COc1ccc2c(=O)c(C(=O)NCCc3ccccc3)c[nH]c2c1,active: 55%
17,O=C(NC(Cc1c[nH]c2ccccc12)c1nnc2n1CCCCC2)c1cccs1 (configuration not stated),inactive: 9.51%
18,CCOc1ccc(N2C(=O)c3ccccc3C2O)cc1 (configuration not stated),inconclusive: 41.1%
19,CCOC(=O)c1[nH]c(C)c(C(=O)Nc2ccccc2F)c1C,inconclusive: 44.4%
20,O=C(Nc1ccccn1)c1ccc(S(=O)(=O)N2CCCCCC2)cc1,inconclusive: 41.3%
21,Cc1ccc(/C(N)=N/OC(=O)C23CC4CC(CC(C4)C2)C3)cc1,inconclusive: 61.5%
22,Cc1ccc(S(=O)(=O)Nc2ccc3c(c2)C(=O)N([C@@H](C)CO)C[C@H](C)[C@@H](CN(C)CC2CCCCC2)OCCCC[C@H](C)O3)cc1,inactive: -0.615%
23,Cc1nc(Nc2nc3c(c(=O)[nH]2)CCC3)nc2ccccc12,inconclusive: 53.6%

row,SMILES,reporter increase
1,CCOc1ccc(NC(=O)Nc2cc(C)on2)cc1,inconclusive: 37.7%
2,N#CCCN(C(=O)CN1CCN(S(=O)(=O)c2ccc3c(c2)OCCO3)CC1)c1ccc(F)cc1,inactive: 1.65%
3,Cc1cccc(C)c1OCC(O)Cn1nnc2ccccc21 (configuration not stated),inactive: 10.8%
4,Brc1ccc(OCc2nc3ccccc3[nH]2)cc1,inconclusive: 40.1%
5,Cc1ccc(-c2ccc(CCC(=O)O)n2-c2cccc(O)c2)cc1,active: 63.5%
6,Cc1ccc2nc(-c3ccc(NC(=O)CSc4nc(N)cc(=O)[nH]4)cc3)sc2c1,inconclusive: 35.6%
7,C=CCNC(=O)C1CC(=O)N(c2ccc(OCc3ccccc3Cl)cc2)C1 (configuration not stated),inconclusive: 42.6%
8,CC1(C)CC(=O)C=C(c2ccc(-c3cccc(C(N)=O)c3)cc2)C1=O,inconclusive: 41.4%
9,CC(=O)N(C)C[C@@H]1OCc2ccccc2-c2ccccc2C(=O)N([C@@H](C)CO)C[C@@H]1C,inactive: -4.82%
10,Cc1cccc(-n2c(C)cc(C(=O)NC3CCCCC3)c2C)c1,inactive: 15.9%
11,Cc1cc(NC(=O)c2coc(=O)c(Br)c2)ccc1C(C)C,inconclusive: 38.8%
12,COc1ccc([C@@H]2CC(=O)c3c(O)cc(O)cc3O2)cc1O,active: 54.1%
13,O=C(Cc1cccs1)NCc1cc(Cl)cc(Cl)c1,inconclusive: 56.3%
14,CCC(=O)Nc1ccc(-c2ccc(N3CCCCC3)nn2)cc1,inconclusive: 47.9%
15,Nc1nc(-c2ccccc2)cs1,inconclusive: 41.3%
16,COc1ccc(-c2cc(-c3cc(F)ccc3O)[nH]n2)cc1OC,inconclusive: 42.6%
17,O=C(Nc1nc(-c2ccncc2)cs1)c1ccco1,inconclusive: 42.5%
18,CNc1ccc(-c2cccc(CO)c2)cn1,active: 41.4%
19,C/C=C/c1ccc2c(c1)O[C@@H](CN(C)C(=O)c1cccc(F)c1)[C@@H](C)CN([C@@H](C)CO)S2(=O)=O,inactive: -0.605%
20,c1ccc(CSc2nnc(NC3=NCCCCC3)s2)cc1,active: 41.2%
21,CC/C(=N\NC(=O)c1csc(C)c1C)c1cccs1,inconclusive: 42.4%
22,Cn1c(SCc2ccccc2)nnc1-c1ccc(O)cc1,inconclusive: 40.8%
23,CC(C)(C)C(=O)O/N=C(\N)COc1cccc(Cl)c1,active: 81.1%

row,SMILES,reporter increase
1,COCC(=O)Nc1nc(-c2ccc(-c3ccccc3)cc2)cs1,inconclusive: 48.3%
2,Oc1[nH]c2ccccc2c1C=Nc1ccccc1,inconclusive: 61.2%
3,CN(C)c1ccc(C(CN)c2c[nH]c3ccccc23)cc1 (configuration not stated),active: 39.4%
4,O=C(NCc1ccccc1)c1cc(-c2ccco2)on1,active: 42.4%
5,CCS(=O)(=O)Nc1cccc(-c2nc3cccnc3s2)c1C,inconclusive: 40.3%
6,CN(CC(=O)Nc1ccc(Cl)c(S(=O)(=O)N(C)C)c1)Cc1ccccc1,active: 65%
7,CC(C)NC(=O)N(C)C[C@@H]1Oc2ccc(NC(=O)Nc3ccccc3)cc2C(=O)N([C@@H](C)CO)C[C@H]1C,inactive: 1.62%
8,Nc1ccc(-c2nc3ncccc3o2)c(Cl)c1,inconclusive: 23%
9,c1ccc(-c2nc3ccccc3[nH]2)cc1,active: 71.7%
10,Cc1nc(SCC(=O)Nc2nc3ccccc3s2)n[nH]1,inconclusive: 40.4%
11,Cc1ccc(C(=O)Nc2ccc(OCc3ccccc3)cc2)cc1[N+](=O)[O-],inactive: 2.42%
12,O=C(Cc1ccc(Br)cc1)c1ccc(O)cc1O,active: 59.6%
13,C[C@@H]1CN([C@H](C)CO)C(=O)Cc2cc(NS(=O)(=O)c3ccccc3)ccc2O[C@H]1CN(C)S(=O)(=O)c1cn(C)cn1,inactive: 0.137%
14,O=C(Cn1cnc([N+](=O)[O-])c1)Nc1ccc(F)c(Cl)c1,inactive: 4.16%
15,CC(C)CC(=O)Nc1cccc(-c2cn3ccsc3n2)c1,inconclusive: 40.3%
16,COc1ccc(NC(=O)NNC(=O)c2cc3occc3n2C)c(OC)c1,inactive: 1.36%
17,COC(=O)c1cc(S(=O)(=O)NCCc2ccccc2)c[nH]1,inactive: -5.14%
18,CO[C@@H]1CN(C)C(=O)c2cc(NS(C)(=O)=O)ccc2OC[C@@H](C)N(C(=O)C2CCCCC2)C[C@H]1C,inactive: 0.495%
19,CC1CC(c2ccccc2)=Nc2ccccc2N1 (configuration not stated),inconclusive: 39.2%
20,O=C(N/N=C/c1ccoc1)c1ccc(Br)cc1,inactive: 26.7%
21,O=C(C[C@H]1C[C@H]2c3cc(NC(=O)C4CCC4)ccc3O[C@H]2[C@@H](CO)O1)NCCN1CCCCC1,inactive: -0.161%
22,Cc1ccc(OCC(=O)NCc2ccccn2)c(Br)c1,active: 55.5%
23,O=c1c2ccccc2c(C=Nc2ccc(O)cc2)c(O)n1Cc1ccccc1,inconclusive: 39.3%
